Experimental data: the supplement of paper PMC9588766
Structures can show the parent of a compound that is named as a salt. Over roughly 1,900 compounds, “cell viability of compound + 1 nM pemigatinib relative to pemigatinib-only (DMSO) wells” has its median near 0.95; the lowest 2% begin near 0.22. Some of the results follow.

What follows are molecules tested on PDC-DUC18828 (assay: cell viability of compound + 1 nM pemigatinib relative to pemigatinib-only (DMSO) wells (fraction); PDC-DUC18828 is a patient-derived cholangiocarcinoma cell line; higher = less growth inhibition). Details: first compound 1 µM; pemigatinib concentration 1 nM; 72 h.
Procedure: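 Selleck Bioactive library screen in the patient-derived FGFR2 fusion-positive ICC cell line PDC-DUC18828 (500 cells/well). Each compound was tested at 1 uM with 1 nM pemigatinib, in triplicate, for 72 h. Viability was read by CellTiter-Glo and normalised to plate DMSO controls. Value is the paper's averaged normalised viability.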

Row | SMILES | cell viability
1 | COc1ccc(S(=O)(=O)N(C(C)=O)c2ccccc2/C=C/c2cc[n+]([O-])cc2)cc1 + CCN1C(=O)N(c2c(F)c(OC)cc(OC)c2F)Cc2cnc3[nH]c(CN4CCOCC4)cc3c21 [pemigatinib] | 0.503
2 | Cc1c(F)cc(C(=O)NC2CC2)cc1-c1ccc(C(=O)NCC(C)(C)C)cn1 + CCN1C(=O)N(c2c(F)c(OC)cc(OC)c2F)Cc2cnc3[nH]c(CN4CCOCC4)cc3c21 [pemigatinib] | 0.989
3 | CC(=O)Nc1ncc([N+](=O)[O-])s1 [Nithiamide] + CCN1C(=O)N(c2c(F)c(OC)cc(OC)c2F)Cc2cnc3[nH]c(CN4CCOCC4)cc3c21 [pemigatinib] | 0.983
4 | CCCCCCCCCCCCCCCC(=O)O[C@@H]1[C@@H](O)[C@@H](O)[C@@H]([C@H](NC(=O)[C@@H]2C[C@@H](CCC)CN2C)[C@H](C)Cl)O[C@@H]1SC [Clindamycin palmitate HCl] + CCN1C(=O)N(c2c(F)c(OC)cc(OC)c2F)Cc2cnc3[nH]c(CN4CCOCC4)cc3c21 [pemigatinib] | 1.01
5 | CNc1cccc(CCOc2ccc3c(c2)CN(CC(F)(F)F)C(=O)[C@H](CC(=O)O)C3)n1 + CCN1C(=O)N(c2c(F)c(OC)cc(OC)c2F)Cc2cnc3[nH]c(CN4CCOCC4)cc3c21 [pemigatinib] | 0.858
6 | O=C(/C=C\n1cnc(-c2cc(C(F)(F)F)cc(C(F)(F)F)c2)n1)NNc1ccccn1 [Verdinexor (KPT-335)] + CCN1C(=O)N(c2c(F)c(OC)cc(OC)c2F)Cc2cnc3[nH]c(CN4CCOCC4)cc3c21 [pemigatinib] | 0.417
7 | CC1Cc2ccccc2N1NC(=O)c1ccc(Cl)c(S(N)(=O)=O)c1 (configuration not stated) [Indapamide] + CCN1C(=O)N(c2c(F)c(OC)cc(OC)c2F)Cc2cnc3[nH]c(CN4CCOCC4)cc3c21 [pemigatinib] | 1.03
8 | CCC(=O)c1c(O)cc(O)cc1O [Flopropione] + CCN1C(=O)N(c2c(F)c(OC)cc(OC)c2F)Cc2cnc3[nH]c(CN4CCOCC4)cc3c21 [pemigatinib] | 0.953
9 | C=CC(=O)Nc1ccc2ncnc(Nc3cccc(Br)c3)c2c1 + CCN1C(=O)N(c2c(F)c(OC)cc(OC)c2F)Cc2cnc3[nH]c(CN4CCOCC4)cc3c21 [pemigatinib] | 0.589
10 | CN1CCN(CCOc2cc(OC3CCOCC3)c3c(Nc4c(Cl)ccc5c4OCO5)ncnc3c2)CC1 [Saracatinib (AZD0530)] + CCN1C(=O)N(c2c(F)c(OC)cc(OC)c2F)Cc2cnc3[nH]c(CN4CCOCC4)cc3c21 [pemigatinib] | 0.696
11 | CCOCC(O)COc1ccc(NC(=O)CC[S+](C)C)cc1 (configuration not stated) [Suplatast Tosylate] + CCN1C(=O)N(c2c(F)c(OC)cc(OC)c2F)Cc2cnc3[nH]c(CN4CCOCC4)cc3c21 [pemigatinib] | 1.06
12 | FC(F)c1nc2ccccc2n1-c1nc(N2CCOCC2)nc(N2CCOCC2)n1 + CCN1C(=O)N(c2c(F)c(OC)cc(OC)c2F)Cc2cnc3[nH]c(CN4CCOCC4)cc3c21 [pemigatinib] | 1.03
13 | Cc1nnc(NS(=O)(=O)c2ccc(N)cc2)s1 [Sulfamethizole] + CCN1C(=O)N(c2c(F)c(OC)cc(OC)c2F)Cc2cnc3[nH]c(CN4CCOCC4)cc3c21 [pemigatinib] | 0.952
14 | COc1ccccc1S(=O)(=O)Nc1ccc2c(c1)CN(C)C(=O)N2 + CCN1C(=O)N(c2c(F)c(OC)cc(OC)c2F)Cc2cnc3[nH]c(CN4CCOCC4)cc3c21 [pemigatinib] | 0.935
15 | CC1(C)O[C@@H]2C[C@H]3[C@@H]4CCC5=CC(=O)C=C[C@]5(C)[C@@]4(F)[C@@H](O)C[C@]3(C)[C@]2(C(=O)CO)O1 [Triamcinolone Acetonide] + CCN1C(=O)N(c2c(F)c(OC)cc(OC)c2F)Cc2cnc3[nH]c(CN4CCOCC4)cc3c21 [pemigatinib] | 0.911
16 | O=C(O)CCCc1ccccc1 [Sodium Phenylbutyrate] + CCN1C(=O)N(c2c(F)c(OC)cc(OC)c2F)Cc2cnc3[nH]c(CN4CCOCC4)cc3c21 [pemigatinib] | 1.06
17 | Cc1cnc(NC(=O)C2=C(O)c3ccccc3S(=O)(=O)N2C)s1 [Meloxicam] + CCN1C(=O)N(c2c(F)c(OC)cc(OC)c2F)Cc2cnc3[nH]c(CN4CCOCC4)cc3c21 [pemigatinib] | 1
18 | CC(C)Oc1ccc(C(=O)N[C@H](CNC(=O)CN(C)C)Cc2ccc(-c3cn4cccc([C@H](C)O)c4n3)cc2)cc1Cl + CCN1C(=O)N(c2c(F)c(OC)cc(OC)c2F)Cc2cnc3[nH]c(CN4CCOCC4)cc3c21 [pemigatinib] | 0.341
19 | C[C@@H]1C[C@H]2[C@@H]3CCC4=CC(=O)C=C[C@]4(C)[C@@]3(F)[C@@H](O)C[C@]2(C)[C@@]1(O)C(=O)CO [Dexamethasone (DHAP)] + CCN1C(=O)N(c2c(F)c(OC)cc(OC)c2F)Cc2cnc3[nH]c(CN4CCOCC4)cc3c21 [pemigatinib] | 0.904

Row | SMILES | cell viability
20 | OC1(c2ccc(Cl)c(C(F)(F)F)c2)CCN(CCCC(c2ccc(F)cc2)c2ccc(F)cc2)CC1 [Penfluridol] + CCN1C(=O)N(c2c(F)c(OC)cc(OC)c2F)Cc2cnc3[nH]c(CN4CCOCC4)cc3c21 [pemigatinib] | 0.861
21 | CCCc1nc(C)c2c(=O)nc(-c3cc(S(=O)(=O)N4CCN(CC)CC4)ccc3OCC)[nH]n12 [Vardenafil HCl Trihydrate] + CCN1C(=O)N(c2c(F)c(OC)cc(OC)c2F)Cc2cnc3[nH]c(CN4CCOCC4)cc3c21 [pemigatinib] | 0.938
22 | CNC(=O)c1cc(COc2nnc(Nc3ccc(Cl)cc3)c3ccoc23)ccn1 [Telatinib] + CCN1C(=O)N(c2c(F)c(OC)cc(OC)c2F)Cc2cnc3[nH]c(CN4CCOCC4)cc3c21 [pemigatinib] | 0.98
23 | COc1cc2nccc(Oc3ccc(NC(=O)C4(C(=O)Nc5ccc(F)cc5)CC4)cc3)c2cc1OC + CCN1C(=O)N(c2c(F)c(OC)cc(OC)c2F)Cc2cnc3[nH]c(CN4CCOCC4)cc3c21 [pemigatinib] | 0.908
24 | O=C(O)/C=C/c1ccc(Cn2ccnc2)cc1 [Ozagrel HCl] + CCN1C(=O)N(c2c(F)c(OC)cc(OC)c2F)Cc2cnc3[nH]c(CN4CCOCC4)cc3c21 [pemigatinib] | 1.03
25 | O=C(O)/C=C/c1ccc(Cn2ccnc2)cc1 [Ozagrel] + CCN1C(=O)N(c2c(F)c(OC)cc(OC)c2F)Cc2cnc3[nH]c(CN4CCOCC4)cc3c21 [pemigatinib] | 0.913
26 | Cc1cc([C@@H](C)Nc2ccccc2C(=O)O)c2nc(N3CCOCC3)cc(=O)n2c1 + CCN1C(=O)N(c2c(F)c(OC)cc(OC)c2F)Cc2cnc3[nH]c(CN4CCOCC4)cc3c21 [pemigatinib] | 0.874
27 | COCCOC(=O)C1=C(C)NC(C)=C(C(=O)OC/C=C/c2ccccc2)C1c1cccc([N+](=O)[O-])c1 (configuration not stated) [Cilnidipine] + CCN1C(=O)N(c2c(F)c(OC)cc(OC)c2F)Cc2cnc3[nH]c(CN4CCOCC4)cc3c21 [pemigatinib] | 1.01
28 | CCOc1nc2cccc(C(=O)O)c2n1Cc1ccc(-c2ccccc2-c2noc(=O)[nH]2)cc1 [Azilsartan] + CCN1C(=O)N(c2c(F)c(OC)cc(OC)c2F)Cc2cnc3[nH]c(CN4CCOCC4)cc3c21 [pemigatinib] | 0.978
29 | O=c1c(-c2ccc(O)cc2)coc2c([C@@H]3O[C@H](CO)[C@@H](O)[C@H](O)[C@H]3O)c(O)ccc12 [Puerarin] + CCN1C(=O)N(c2c(F)c(OC)cc(OC)c2F)Cc2cnc3[nH]c(CN4CCOCC4)cc3c21 [pemigatinib] | 1.01
30 | Cc1cc(C)cc(C(=O)NOCCCCCC(=O)NO)c1 + CCN1C(=O)N(c2c(F)c(OC)cc(OC)c2F)Cc2cnc3[nH]c(CN4CCOCC4)cc3c21 [pemigatinib] | 0.457
31 | COc1cc(O)c(CC=C(C)C)c(O)c1C(=O)/C=C/c1ccc(O)cc1 [Xanthohumol] + CCN1C(=O)N(c2c(F)c(OC)cc(OC)c2F)Cc2cnc3[nH]c(CN4CCOCC4)cc3c21 [pemigatinib] | 0.968
32 | Cc1cc(/N=N/c2ccc(S(=O)(=O)Nc3ccccn3)cc2)c(N)cc1O + CCN1C(=O)N(c2c(F)c(OC)cc(OC)c2F)Cc2cnc3[nH]c(CN4CCOCC4)cc3c21 [pemigatinib] | 0.971
33 | CC(C)(Cc1ccc2ccccc2c1)NC[C@@H](O)COc1cccc(Cl)c1C#N + CCN1C(=O)N(c2c(F)c(OC)cc(OC)c2F)Cc2cnc3[nH]c(CN4CCOCC4)cc3c21 [pemigatinib] | 0.953
34 | O=C(c1cn(Cc2cncn2Cc2ccc(Br)cc2)cc1-c1cccc2ccccc12)N1CCOCC1 + CCN1C(=O)N(c2c(F)c(OC)cc(OC)c2F)Cc2cnc3[nH]c(CN4CCOCC4)cc3c21 [pemigatinib] | 0.671
35 | CCN1CCN(C(=O)N[C@@H](C(=O)N[C@@H]2C(=O)N3C(C(=O)O)=C(CSc4nnnn4C)CS[C@H]23)c2ccc(O)cc2)C(=O)C1=O [Cefoperazone] + CCN1C(=O)N(c2c(F)c(OC)cc(OC)c2F)Cc2cnc3[nH]c(CN4CCOCC4)cc3c21 [pemigatinib] | 1.09
36 | CN(C)CCOc1ccc(/C(=C(/CCCl)c2ccccc2)c2ccccc2)cc1 [Toremifene Citrate] + CCN1C(=O)N(c2c(F)c(OC)cc(OC)c2F)Cc2cnc3[nH]c(CN4CCOCC4)cc3c21 [pemigatinib] | 0.875
37 | Cc1ccc(Cl)c(Nc2ccccc2C(=O)O)c1Cl [Meclofenamate Sodium] + CCN1C(=O)N(c2c(F)c(OC)cc(OC)c2F)Cc2cnc3[nH]c(CN4CCOCC4)cc3c21 [pemigatinib] | 0.936
